Here are results for 44 molecules from publication PMC4336329 (PLoS ONE, 2015).

About 2,200 (0.71%) of roughly 310,000 compounds showed an effect of 50% or more. The effect is printed as a negative number. The list shows a part of the results.

Chain of human ether-à-go-go-related gene (hERG) potassium channel (Q12809 whole entry, looked up): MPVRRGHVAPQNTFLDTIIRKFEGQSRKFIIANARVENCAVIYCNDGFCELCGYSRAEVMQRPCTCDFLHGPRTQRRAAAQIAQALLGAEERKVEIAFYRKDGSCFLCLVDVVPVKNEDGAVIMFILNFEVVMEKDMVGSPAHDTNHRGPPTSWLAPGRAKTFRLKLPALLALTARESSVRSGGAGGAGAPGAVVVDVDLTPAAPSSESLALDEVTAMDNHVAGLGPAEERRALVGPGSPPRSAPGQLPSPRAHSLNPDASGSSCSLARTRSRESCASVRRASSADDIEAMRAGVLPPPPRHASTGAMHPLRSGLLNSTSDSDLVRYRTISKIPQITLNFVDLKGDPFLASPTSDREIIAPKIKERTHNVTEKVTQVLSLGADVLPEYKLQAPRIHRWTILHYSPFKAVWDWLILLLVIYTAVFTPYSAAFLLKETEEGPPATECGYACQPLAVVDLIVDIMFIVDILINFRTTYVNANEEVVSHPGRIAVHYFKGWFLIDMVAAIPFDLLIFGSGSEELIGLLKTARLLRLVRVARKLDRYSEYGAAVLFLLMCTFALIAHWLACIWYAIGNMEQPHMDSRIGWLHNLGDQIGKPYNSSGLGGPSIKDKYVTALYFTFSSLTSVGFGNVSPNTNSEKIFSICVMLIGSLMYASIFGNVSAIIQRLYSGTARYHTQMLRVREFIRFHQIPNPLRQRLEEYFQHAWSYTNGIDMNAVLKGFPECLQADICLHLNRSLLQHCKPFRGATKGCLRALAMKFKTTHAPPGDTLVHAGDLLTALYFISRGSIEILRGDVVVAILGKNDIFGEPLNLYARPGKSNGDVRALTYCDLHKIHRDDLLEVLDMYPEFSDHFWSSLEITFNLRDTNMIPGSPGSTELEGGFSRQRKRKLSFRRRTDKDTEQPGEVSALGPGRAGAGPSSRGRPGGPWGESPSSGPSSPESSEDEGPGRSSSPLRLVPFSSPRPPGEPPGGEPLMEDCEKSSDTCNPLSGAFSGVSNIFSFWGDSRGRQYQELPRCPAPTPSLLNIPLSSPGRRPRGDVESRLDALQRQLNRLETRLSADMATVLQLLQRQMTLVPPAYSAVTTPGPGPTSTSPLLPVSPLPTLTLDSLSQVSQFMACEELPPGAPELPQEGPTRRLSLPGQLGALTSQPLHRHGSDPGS

This assay concerns the target human ether-à-go-go-related gene (hERG) potassium channel (human, UniProt Q12809). Description: primary screen, population patch clamp on CHO cells stably expressing hERG.
Turning to `COc1ccc(N2CCN(C3CC(=O)N(Cc4ccc(N5CCCC5=O)cc4)C3=O)CC2)cc1` (centres unmarked), the “hERG current change (%, negative = inhibition) at 1uM” value amounted to 9.23%.

Take `O=C(NC1CC1)C1=C[C@H](c2ccc(Br)cc2)C[C@H](OCc2ccc(CO)cc2)O1`: the “hERG current change (%, negative = inhibition) at 1uM” value is recorded as -4.05%.

For `Cc1cc(C(=O)NN)c2cc(Br)ccc2n1`, the “hERG current change (%, negative = inhibition) at 1uM” value stood at 5.89%.

For `COc1ccc(OCc2cc(/C=N\NC(=O)c3ccccc3)ccc2OC)cc1`, the “hERG current change (%, negative = inhibition) at 1uM” value is -5.5%.

Consider `O=C(Nc1ccccc1)Nc1cccc(Cl)c1`, for which the “hERG current change (%, negative = inhibition) at 1uM” value is 12.8%.

Consider `Cc1occc1C(=O)Nc1cccc([N+](=O)[O-])c1`, for which the “hERG current change (%, negative = inhibition) at 1uM” value came to 5.97%.

For the molecule `Cc1cnnc2ccc3c(no[n+]3[O-])c12`, the “hERG current change (%, negative = inhibition) at 1uM” value was 13%.

As to `COc1ccc(C2C(C(=O)OCC(=O)Nc3ccc(C)cc3)CCC(=O)N2c2ccc(OC)cc2)cc1` (centres unmarked), the “hERG current change (%, negative = inhibition) at 1uM” value is on record as -9.66%.

As for `CN(C)C(=O)Nc1cnc2ccccc2c1`, the “hERG current change (%, negative = inhibition) at 1uM” value was found to be 5.92%.

Regarding `Cc1cccc2cc(CN(Cc3cccnc3)C(=O)c3cccs3)c3nnnn3c12`, the “hERG current change (%, negative = inhibition) at 1uM” value was -1.24%.

For the molecule `O=C(NC1CCCC1)C1CCN(C(=O)c2ccccc2Cl)CC1`, the “hERG current change (%, negative = inhibition) at 1uM” value was found to be 15.7%.

As to `COc1ccc(CNC2CCSc3ccccc32)cc1OC.O=C(O)C(=O)O` (centres unmarked), the “hERG current change (%, negative = inhibition) at 1uM” value was 14.8%.

Regarding `CCOC(=O)CSc1ccc(S(=O)(=O)N2CCCC2)cc1[N+](=O)[O-]`, the “hERG current change (%, negative = inhibition) at 1uM” value was found to be 5.74%.

As to `CC(C)CNC(=O)COC(=O)CNC(=O)c1cc(Cl)cc([N+](=O)[O-])c1`, the “hERG current change (%, negative = inhibition) at 1uM” value is -6.29%.

`CC(NC(=O)CN1CCN(c2ccccc2F)CC1)c1ccccc1` (centres unmarked): the “hERG current change (%, negative = inhibition) at 1uM” value is listed as 7.76%.

Turning to `COc1ccc(C2=NN(C(=O)c3ccco3)C(c3cc4ccccc4nc3Cl)C2)cc1` (centres unmarked), the “hERG current change (%, negative = inhibition) at 1uM” value was 12%.

For `COc1ccc(N2CC(C(=O)OCC(=O)Nc3cc(C)on3)CC2=O)cc1` (centres unmarked), the “hERG current change (%, negative = inhibition) at 1uM” value is on record as 9.53%.

In the case of `O=C(NC(=S)Nc1ccc(N2CCOCC2)cc1)c1ccccc1`, the “hERG current change (%, negative = inhibition) at 1uM” value worked out at 9.13%.

As for `O=C(Nc1cccc(C(=O)NC2CCCC2)c1)c1ccccc1`, the “hERG current change (%, negative = inhibition) at 1uM” value came to 5.75%.

As to `COc1ccc(/C=N/NC(=O)c2ccc(Br)cc2)cc1Cn1cc(Cl)cn1`, the “hERG current change (%, negative = inhibition) at 1uM” value is recorded as 4.52%.

As for `COC(=O)c1c(N2C(=O)CC(Sc3ncccc3C(=O)O)C2=O)sc(C)c1C` (centres unmarked), the “hERG current change (%, negative = inhibition) at 1uM” value was determined as 10.8%.

Consider `O=C(N/N=C/C(Br)=C/c1ccccc1)c1n[nH]c2c1CCC2`, for which the “hERG current change (%, negative = inhibition) at 1uM” value was found to be 4.82%.

Regarding `CCCCN(C)C1CCN(C(=S)Nc2ccc(OCC)cc2)CC1`, the “hERG current change (%, negative = inhibition) at 1uM” value is -46.4%.

In the case of `CN(CC(=O)Nc1cccc(F)c1)C(=O)CCCc1nc2ccccc2c(=O)[nH]1`, the “hERG current change (%, negative = inhibition) at 1uM” value was found to be 12.1%.

With `Cc1cc2ncc(-c3ccc(Cl)cc3)cn2n1`, the “hERG current change (%, negative = inhibition) at 1uM” value was 13.1%.

Regarding `O=C(COC(=O)CNC(=O)C1CCCCC1)Nc1ccc2c(c1)OCCO2`, the “hERG current change (%, negative = inhibition) at 1uM” value amounted to 1.25%.

As to `COc1ccc(N(C)C(=O)CC2(CC(=O)O)CCCCC2)cc1`, the “hERG current change (%, negative = inhibition) at 1uM” value is reported as -13.3%.

For `CCOc1cc(/C=N/Nc2ccccc2Cl)ccc1OCC(=O)O`, the “hERG current change (%, negative = inhibition) at 1uM” value is given as 12.5%.

Consider `CCOc1ccc(CCNC(=O)CCC(=O)N2CCSc3ccccc32)cc1OCC`, for which the “hERG current change (%, negative = inhibition) at 1uM” value was found to be 5.11%.

Regarding `O=C(c1ccsc1)N1CCCC(Nc2ccc(F)c(F)c2)C1` (centres unmarked), the “hERG current change (%, negative = inhibition) at 1uM” value was 7.42%.

Take `O=C(COC(=O)c1nc(Cl)ccc1Cl)Nc1ccc2c(c1)OCO2`: the “hERG current change (%, negative = inhibition) at 1uM” value was 11.7%.

`O=C(Nc1nnc(C2CC2)s1)c1cc(Cl)sc1Cl`: the “hERG current change (%, negative = inhibition) at 1uM” value stood at 16.1%.

On to `CCn1c(Oc2ccccc2F)nc2c1c(=O)n(C)c(=O)n2C`, for which the “hERG current change (%, negative = inhibition) at 1uM” value is 14.8%.

For `Br.COc1ccc2c(c1)nc(SCC(=O)c1ccc(Br)s1)n2C`, the “hERG current change (%, negative = inhibition) at 1uM” value is recorded as 4.81%.

With `Cc1ccc(Cl)cc1N1CCN(C(=O)C2CCN(S(=O)(=O)c3cccnc3)CC2)CC1`, the “hERG current change (%, negative = inhibition) at 1uM” value is given as -1.41%.

`COc1cc2cc(Br)cc(Br)c2nc1C`: the “hERG current change (%, negative = inhibition) at 1uM” value is given as -6.18%.

Regarding `COc1ccc2c(c1)[nH]c1c(=O)n(N)cnc12`, the “hERG current change (%, negative = inhibition) at 1uM” value came out at 8.29%.

For the molecule `CC(=O)CSc1nnc2c3ccccc3nc(C(C)(C)C)n12`, the “hERG current change (%, negative = inhibition) at 1uM” value was 14.4%.

Take `COc1cccc(CNc2ccc3[nH]c(=O)[nH]c3c2)c1OCc1ccccc1Cl`: the “hERG current change (%, negative = inhibition) at 1uM” value was 24%.

In the case of `COc1cc(NC(=O)COC(=O)Cn2cnc3c2c(=O)n(C)c(=O)n3C)cc(OC)c1`, the “hERG current change (%, negative = inhibition) at 1uM” value was found to be 5.44%.

Consider `N#Cc1ccc(NC(=O)N2CCC(c3nc4c(nnn4Cc4cccc(Cl)c4)c(=O)[nH]3)CC2)cc1`, for which the “hERG current change (%, negative = inhibition) at 1uM” value turned out to be 10.9%.

With `Cc1cccc(C(=O)N2CCCC(CCC(=O)N3CCN(c4ccccn4)CC3)C2)c1` (centres unmarked), the “hERG current change (%, negative = inhibition) at 1uM” value was -25.8%.

On to `Cc1sc2ncnc(NCC3COc4ccccc4O3)c2c1C` (centres unmarked), for which the “hERG current change (%, negative = inhibition) at 1uM” value amounted to 7.09%.

On to `Cc1ccc(CNC(=S)Nc2ccc(OC(F)F)cc2C)cc1`, for which the “hERG current change (%, negative = inhibition) at 1uM” value amounted to 13.2%.
